Among the data in the RNAGym collection of RNA variant scans (doi:10.1093/nar/gkz1192) are self-cleavage values, retold here.

Read counts are not given, so values of variants with three or more changes are uncertain.

To fix the notation:
B1: CPEB3 Ribozyme (parent)
chain: UAACAGGGGGCCACAGCAGAAGCGUUCACGUCGCAGCCCCUGUCAGAUUCUGGUGAAUCUGCGAAUUCUGCUGUAUAUCUC

This data set covers variants of B1. Description: self-cleavage, relative activity (ratio to wild type); higher = more cleavage; in vitro, sequencing. In outline:
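Relative activity was defined as the cleaved/total read fraction for a variant divided by the same fraction for the unmutated ribozyme. CPEB3 self-cleaving ribozyme libraries were made by rounds of error-prone PCR, barcoded, and transcribed in vitro with T7 RNA polymerase for 5 hours at 37°C, and cleavage ran through transcription plus a 15 min DNase I step before EDTA. Illumina sequencing of template-switched reverse transcripts gave the reads, and DNA sequencing mapped the barcodes. Averages come from three batches, using variants with at least 5 reads.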
Turning to A5G U25G A77G, the self-cleavage was found to be 0.37.

Consider A5G U43C A47U, for which the self-cleavage came out at 0.15.

On to A5U A13G U25C U49A U74C U78C, for which the self-cleavage worked out at 0.04.

In the case of A5G U25G U41A A64U, the self-cleavage stood at 0.29.

Consider A5G G36U G42C U51A C71U U78C, for which the self-cleavage worked out at 0.13.

Consider A5G G55A C71U, for which the self-cleavage turned out to be 0.14.

With A5G U26C U31C A45U A47U U49C U66A, the self-cleavage was 0.05.

Regarding A5G G46C U72C A75C, the self-cleavage was 0.05.

Regarding A5G U25C U49C U74C, the self-cleavage was determined as 0.45.

Regarding A5G U31G A45U C62U U76C, the self-cleavage was found to be 0.25.

Consider A5G U41C U80A, for which the self-cleavage is 0.87.

Take A5G U72A U80C: the self-cleavage was found to be 1.

Turning to A5G G9A A21G A45U U49C A65G, the self-cleavage is 0.04.

For the variant A5G U26C U58A U69C U72A, the self-cleavage worked out at 0.06.

Turning to A5U A13U A20G U43G, the self-cleavage was found to be 0.09.

A5G G9U A13G A28G C44U: the self-cleavage amounted to 0.33.

In the case of A5G U43A A57U, the self-cleavage came out at 0.57.

As for A5U A13U A20G U26A U31A, the self-cleavage turned out to be 0.59.

Consider A5G U41C A57G U78C, for which the self-cleavage came out at 0.32.

With A5G G42A U54C C68U, the self-cleavage came to 0.22.

Consider A5G U48A A64G U72A, for which the self-cleavage was determined as 0.17.

As to A5G G22A A75U, the self-cleavage was determined as 0.13.

Consider A5G U48C U80C, for which the self-cleavage is 0.48.

Take A5G G30A U66C A75U: the self-cleavage turned out to be 0.09.

With A5G U67C U74A, the self-cleavage worked out at 0.41.

Regarding A5G G8U A13G A21G U67G, the self-cleavage worked out at 0.07.

For the variant A5G G8U U43C A47G U60C, the self-cleavage came to 0.9.

In the case of A5G G8U A15G C32A U41C C44G, the self-cleavage came to 0.2.

Take A5U A13C A28U: the self-cleavage turned out to be 1.1.

On to A5G G24A G63A, for which the self-cleavage was found to be 0.33.

Consider A5U A15G A20G U51A U54C U66C, for which the self-cleavage came out at 0.14.

For A5G U31C A47G, the self-cleavage worked out at 0.41.

For A5G U31A A57G C81A, the self-cleavage came to 0.47.

For the variant A5U A13U C23U A45G, the self-cleavage came out at 0.17.

With A5G G8U A18U, the self-cleavage came out at 0.5.

With A5G U43A U69A, the self-cleavage turned out to be 0.27.

A5G G8C G19A U49A A65G U76A: the self-cleavage worked out at 0.07.

On to A5G U25C U43A U54C, for which the self-cleavage was 0.09.

A5G U26C U51A U72G: the self-cleavage came out at 0.17.

As for A5G U26C C37U U67C U69A, the self-cleavage came out at 0.15.

Consider A5U A15G A20G A77G, for which the self-cleavage was determined as 1.14.

Regarding A5G U54A C79U, the self-cleavage was 1.02.

Regarding A5G U31C A57G A75U, the self-cleavage amounted to 0.32.

Turning to A5G U25C C37A A47G U54C A56C U78C, the self-cleavage came to 0.04.

For the variant A5G G33A A35G A56U U76C, the self-cleavage is 0.07.

Regarding A5U A13G G70C U78C, the self-cleavage came out at 0.19.

As to A5G G9A A77C, the self-cleavage was 0.58.

Take A5G U26C A45G: the self-cleavage was 0.38.

A5G U60C A65G U74A: the self-cleavage was 0.

Take A5U A15G A35G U41A U60A: the self-cleavage was 0.09.

Take A5G G36A U58C: the self-cleavage stood at 0.28.

On to A5G U41A U54A C71U, for which the self-cleavage is 0.11.

With A5G U43C U49C U54C, the self-cleavage amounted to 0.19.

For the variant A5G U41A U49C, the self-cleavage worked out at 0.35.

Regarding A5U A13U U26A A64G G73C A77U, the self-cleavage was found to be 1.29.

A5U A13G U31A A45G: the self-cleavage turned out to be 0.66.

For the variant A5U A13G A64U U69C, the self-cleavage was found to be 0.23.

Regarding A5G U26A A77G, the self-cleavage worked out at 0.96.

As for A5G G16A U26C, the self-cleavage was 0.18.

Take A5G U26C G42A U43C: the self-cleavage stood at 0.57.

For the variant A5G G9U C34A, the self-cleavage is 0.07.

For the variant A5G U49C A64G U78C, the self-cleavage is 0.61.

As to A5G G24U U48C C79U U80G, the self-cleavage worked out at 0.47.

For A5G G8U A13G A20U G33C U54C A65G, the self-cleavage is 0.04.

For the variant A5U A13U A21G A47C G53A A75G, the self-cleavage was 0.12.

Turning to A5G U26C U54G U66C, the self-cleavage came out at 0.24.

With A5G G10A G53A U74A, the self-cleavage was 0.94.

As to A5G U54C U60G, the self-cleavage came to 0.14.

As for A5G U49C G55U U78C, the self-cleavage came out at 0.26.

Take A5G U26G A45G A65U: the self-cleavage stood at 0.23.

On to A5G G9U C39U, for which the self-cleavage was determined as 0.11.

Turning to A5G U48C A64U U80A, the self-cleavage amounted to 0.22.

For A5G U25C U72A, the self-cleavage was 0.18.

Regarding A5G U31C A56G, the self-cleavage is 0.3.

For A5G U25C U26C, the self-cleavage is 0.48.

As to A5G G10A A13G A21G C50A U58C, the self-cleavage is 0.06.

As to A5G U66C A77U, the self-cleavage came to 0.13.

Take A5G U41A U76C: the self-cleavage came to 0.35.

As for A5G G10A C17U U54C, the self-cleavage stood at 0.14.

For the variant A5G U51C U80C, the self-cleavage was found to be 0.9.

On to A5G U51C U80A, for which the self-cleavage turned out to be 0.56.

Take A5G G9C U58G U74A: the self-cleavage amounted to 0.08.

Regarding A5U A13G U31A U48C A56U, the self-cleavage was determined as 0.27.

Take A5G G9A U51A G73U: the self-cleavage came to 0.08.
